A lower IC50 marks a more sensitive line; a fit beyond the top or the lowest dose is shown as a bound at that dose. For AUC the same curve is integrated over the 256-fold range of doses and scaled to a fraction; it is 1 without any effect and falls as sensitivity rises. The top dose, if marked as inferred, is not printed in the source and was worked back from the curve model.
Experiments:
Assay in all cases: Viability of human cancer cell lines after 72 h of drug (GDSC screen)
XMD14-99 = compound: COc1cc(N2CCN(C)CC2)ccc1Nc1nc(N)c(C(=O)c2c(Cl)cccc2Cl)s1 [XMD14-99]; settings: top dose 10.24 µM; top dose inferred
Method: (§1)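 Human cancer cell lines in 384-well plates, medium with 10% serum, drug for 72 h over a 256-fold dose range (nine 2-fold or five 4-fold steps up to the top dose). Adherent lines were fixed and stained with the nucleic acid dye Syto60, suspension lines read with resazurin; signal relative to control wells, capped at 0 and 100%. One two-parameter sigmoid per drug and line, fitted in a mixed model over all curves with the slope shared within a line.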

FH535 = compound: Cc1cc([N+](=O)[O-])ccc1NS(=O)(=O)c1cc(Cl)ccc1Cl [FH535]; settings: top dose 32 µM; top dose inferred
Method: as §1

AT-7519 = compound: O=C(NC1CCNCC1)c1n[nH]cc1NC(=O)c1c(Cl)cccc1Cl [AT-7519]; settings: top dose 10.24 µM; top dose inferred
Method: as §1

Row | Cell Line | AUC (XMD14-99) | IC50 (XMD14-99) | AUC (FH535) | IC50 (FH535) | AUC (AT-7519) | IC50 (AT-7519)
1 | SCC-9 (head and neck, adherent) | 0.961 | > 10.2 µM | 0.866 | > 32 µM | 0.472 | 0.524 µM
2 | OE19 (oesophagus, adherent) | 0.985 | > 10.2 µM | 0.616 | 4.35 µM | 0.984 | > 10.2 µM
3 | MS751 (cervix, adherent) | 0.987 | > 10.2 µM | 0.605 | 3.8 µM | 0.668 | 1.8 µM
4 | SCC-25 (head and neck, adherent) | 0.973 | > 10.2 µM | 0.688 | 7.25 µM | 0.477 | 0.548 µM
5 | SW780 (bladder, adherent) | 0.986 | > 10.2 µM | 0.635 | 4.88 µM | 0.948 | > 10.2 µM
6 | CAL-27 (head and neck, adherent) | 0.986 | > 10.2 µM | 0.575 | 3.21 µM | 0.461 | 0.501 µM
7 | NCI-H520 (lung squamous cell carcinoma, adherent) | 0.964 | > 10.2 µM | 0.673 | – | 0.53 | 0.775 µM
8 | H2869 (mesothelioma, adherent) | 0.955 | > 10.2 µM | 0.843 | 31.3 µM | 0.721 | 3.19 µM
9 | AN3-CA (endometrium, adherent) | 0.978 | > 10.2 µM | 0.444 | 1.39 µM | 0.777 | 4.5 µM
10 | TOV-21G (ovary, adherent) | 0.958 | > 10.2 µM | 0.98 | > 32 µM | 0.457 | 0.485 µM
11 | NCI-H596 (lung adenocarcinoma, adherent) | 0.982 | > 10.2 µM | 0.705 | 9.09 µM | 0.683 | 2.44 µM
12 | HuO9 (osteosarcoma, adherent) | 0.917 | > 10.2 µM | 0.896 | > 32 µM | 0.428 | 0.397 µM
13 | C-33-A (cervix, adherent) | 0.977 | > 10.2 µM | 0.526 | 2.36 µM | 0.811 | 5.44 µM
14 | H2818 (mesothelioma, adherent) | 0.97 | > 10.2 µM | 0.929 | > 32 µM | 0.956 | > 10.2 µM
15 | HCC1500 (breast, adherent) | 0.988 | > 10.2 µM | 0.427 | 1.26 µM | 0.491 | 0.602 µM
16 | JEG-3 (urogenital system, adherent) | 0.978 | > 10.2 µM | 0.492 | 1.91 µM | 0.604 | 1.2 µM
17 | LN-18 (glioma, adherent) | 0.994 | > 10.2 µM | 0.519 | 2.23 µM | 0.939 | > 10.2 µM
18 | MDA-MB-415 (breast, adherent) | 0.982 | > 10.2 µM | 0.626 | 5.01 µM | 0.927 | > 10.2 µM
19 | SW13 (adrenal gland, adherent) | 0.988 | > 10.2 µM | 0.5 | 2 µM | 0.973 | > 10.2 µM
20 | SF295 (glioma, adherent) | 0.984 | > 10.2 µM | 0.516 | 2.22 µM | 0.882 | > 10.2 µM

Row | Cell Line | AUC (XMD14-99) | IC50 (XMD14-99) | AUC (FH535) | IC50 (FH535) | AUC (AT-7519) | IC50 (AT-7519)
21 | NCI-H1781 (lung adenocarcinoma, adherent) | 0.953 | > 10.2 µM | 0.615 | 4.14 µM | 0.971 | > 10.2 µM
22 | JHH-4 (liver, adherent) | 0.987 | > 10.2 µM | 0.474 | 1.7 µM | 0.861 | 8.66 µM
23 | TCCSUP (bladder, adherent) | 0.985 | > 10.2 µM | 0.62 | 4.5 µM | 0.973 | > 10.2 µM
24 | Hs766T (pancreas, adherent) | 0.984 | > 10.2 µM | 0.48 | 1.73 µM | 0.972 | > 10.2 µM
25 | SW1783 (glioma, adherent) | 0.99 | > 10.2 µM | 0.666 | 5.5 µM | 0.972 | > 10.2 µM
26 | CaR-1 (large intestine, adherent) | 0.975 | > 10.2 µM | 0.733 | 13.2 µM | 0.71 | 3.44 µM
27 | LN-229 (glioma, adherent) | 0.988 | > 10.2 µM | 0.649 | 5.16 µM | 0.961 | > 10.2 µM
28 | BT-20 (breast, adherent) | 0.984 | > 10.2 µM | 0.696 | 8.18 µM | 0.594 | 1.24 µM
29 | HT-1080 (fibrosarcoma, adherent) | 0.989 | > 10.2 µM | 0.436 | 1.37 µM | 0.983 | > 10.2 µM
30 | NCI-H841 (small cell lung carcinoma, adherent) | 0.981 | > 10.2 µM | 0.384 | 0.961 µM | 0.862 | 8.85 µM
31 | NCI-H1563 (lung adenocarcinoma, adherent) | 0.984 | > 10.2 µM | 0.758 | 13 µM | 0.623 | 1.49 µM
32 | HOP-92 (large cell lung carcinoma, adherent) | 0.983 | > 10.2 µM | 0.51 | 2.13 µM | 0.931 | > 10.2 µM
33 | AU565 (breast, adherent) | 0.983 | > 10.2 µM | 0.411 | 1.11 µM | 0.543 | 0.852 µM
34 | BFTC-909 (kidney, adherent) | 0.985 | > 10.2 µM | 0.54 | 2.57 µM | 0.982 | > 10.2 µM
35 | BT-483 (breast, adherent) | 0.972 | > 10.2 µM | 0.95 | > 32 µM | 0.887 | > 10.2 µM
36 | TK (B-cell lymphoma, suspension) | 0.985 | > 10.2 µM | 0.707 | 7.23 µM | 0.846 | 6.49 µM
37 | HT-1376 (bladder, adherent) | 0.984 | > 10.2 µM | 0.599 | 3.92 µM | 0.965 | > 10.2 µM
38 | COLO-792 (melanoma, adherent) | 0.951 | > 10.2 µM | 0.396 | 1.04 µM | 0.851 | 7.66 µM
39 | WM278 (melanoma, adherent) | 0.981 | > 10.2 µM | 0.627 | 4.7 µM | 0.761 | 4.06 µM
